Data on 31 molecules can be found in PMC9911399, “Two distinct binding modes provide the RNA-binding protein RbFox with extraordinary sequence specificity”.

Sequences and labels used below:
T1: RBFOX1 RRM (Homo sapiens, UniProt Q9NWB1 109-208)
T1 sequence: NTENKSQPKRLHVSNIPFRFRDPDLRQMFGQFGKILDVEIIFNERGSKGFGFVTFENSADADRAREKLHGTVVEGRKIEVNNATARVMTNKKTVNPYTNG

B1: GACGAAC (DNA:RNA)
RNA: GGGAGACCGGAAUUCAGAUUGUCCGACGAACUUAAAUCCCGUCGUAGCCACCA
DNA 1: CAATCTGAATTCCGGTCTCCC
DNA 2: TGGTGGCTACGACGGGATT
B2: GCGGCUU (DNA:RNA)
RNA: B1 RNA with A26C, C27G, A29C, A30U, C31U
DNA 1: CAATCTGAATTCCGGTCTCCC
DNA 2: TGGTGGCTACGACGGGATT
B3: AUCUUAU (DNA:RNA)
RNA: B1 RNA with G25A, A26U, G28U, A29U, C31U
DNA 1: CAATCTGAATTCCGGTCTCCC
DNA 2: TGGTGGCTACGACGGGATT
B4: GGCUUAU (DNA:RNA)
RNA: B1 RNA with A26G, G28U, A29U, C31U
DNA 1: CAATCTGAATTCCGGTCTCCC
DNA 2: TGGTGGCTACGACGGGATT
B5: UAUAGUG (DNA:RNA)
RNA: B1 RNA with G25U, C27U, G28A, A29G, A30U, C31G
DNA 1: CAATCTGAATTCCGGTCTCCC
DNA 2: TGGTGGCTACGACGGGATT
B6: UCCUGGC (DNA:RNA)
RNA: B1 RNA with G25U, A26C, G28U, A29G, A30G
DNA 1: CAATCTGAATTCCGGTCTCCC
DNA 2: TGGTGGCTACGACGGGATT
B7: UUCACCU (DNA:RNA)
RNA: B1 RNA with G25U, A26U, G28A, A29C, A30C, C31U
DNA 1: CAATCTGAATTCCGGTCTCCC
DNA 2: TGGTGGCTACGACGGGATT
B8: CGGGCGU (DNA:RNA)
RNA: B1 RNA with G25C, A26G, C27G, A29C, A30G, C31U
DNA 1: CAATCTGAATTCCGGTCTCCC
DNA 2: TGGTGGCTACGACGGGATT
B9: ACGUUCC (DNA:RNA)
RNA: B1 RNA with G25A, A26C, C27G, G28U, A29U, A30C
DNA 1: CAATCTGAATTCCGGTCTCCC
DNA 2: TGGTGGCTACGACGGGATT
B10: AGCGUAC (DNA:RNA)
RNA: B1 RNA with G25A, A26G, A29U
DNA 1: CAATCTGAATTCCGGTCTCCC
DNA 2: TGGTGGCTACGACGGGATT
B11: UAUGCAA (DNA:RNA)
RNA: B1 RNA with G25U, C27U, A29C, C31A
DNA 1: CAATCTGAATTCCGGTCTCCC
DNA 2: TGGTGGCTACGACGGGATT
B12: GGGGUGU (DNA:RNA)
RNA: B1 RNA with A26G, C27G, A29U, A30G, C31U
DNA 1: CAATCTGAATTCCGGTCTCCC
DNA 2: TGGTGGCTACGACGGGATT
B13: AACUUAA (DNA:RNA)
RNA: B1 RNA with G25A, G28U, A29U, C31A
DNA 1: CAATCTGAATTCCGGTCTCCC
DNA 2: TGGTGGCTACGACGGGATT
B14: GCUAUUU (DNA:RNA)
RNA: B1 RNA with A26C, C27U, G28A, A29U, A30U, C31U
DNA 1: CAATCTGAATTCCGGTCTCCC
DNA 2: TGGTGGCTACGACGGGATT
B15: CUUCGUG (DNA:RNA)
RNA: GGGAGACCGGAAUUCAGAUUGUCCCUUCGUGUUAAAUCCCGUCGUAGCCACCA
DNA 1: CAATCTGAATTCCGGTCTCCC
DNA 2: TGGTGGCTACGACGGGATT
B16: GCGAAUU (DNA:RNA)
RNA: B1 RNA with A26C, C27G, G28A, A30U, C31U
DNA 1: CAATCTGAATTCCGGTCTCCC
DNA 2: TGGTGGCTACGACGGGATT
B17: UGUAUUG (DNA:RNA)
RNA: B15 RNA with C25U, U26G, C28A, G29U
DNA 1: CAATCTGAATTCCGGTCTCCC
DNA 2: TGGTGGCTACGACGGGATT
B18: CCAAUUU (DNA:RNA)
RNA: B15 RNA with U26C, U27A, C28A, G29U, G31U
DNA 1: CAATCTGAATTCCGGTCTCCC
DNA 2: TGGTGGCTACGACGGGATT
B19: CUGUACU (DNA:RNA)
RNA: B15 RNA with U27G, C28U, G29A, U30C, G31U
DNA 1: CAATCTGAATTCCGGTCTCCC
DNA 2: TGGTGGCTACGACGGGATT
B20: AAGGACA (DNA:RNA)
RNA: B1 RNA with G25A, C27G, A30C, C31A
DNA 1: CAATCTGAATTCCGGTCTCCC
DNA 2: TGGTGGCTACGACGGGATT
B21: ACCACAG (DNA:RNA)
RNA: B1 RNA with G25A, A26C, G28A, A29C, C31G
DNA 1: CAATCTGAATTCCGGTCTCCC
DNA 2: TGGTGGCTACGACGGGATT
B22: GGUUGGU (DNA:RNA)
RNA: B15 RNA with C25G, U26G, C28U, U30G, G31U
DNA 1: CAATCTGAATTCCGGTCTCCC
DNA 2: TGGTGGCTACGACGGGATT
B23: CUUCUCA (DNA:RNA)
RNA: B15 RNA with G29U, U30C, G31A
DNA 1: CAATCTGAATTCCGGTCTCCC
DNA 2: TGGTGGCTACGACGGGATT
B24: GAGAUUA (DNA:RNA)
RNA: B1 RNA with C27G, G28A, A29U, A30U, C31A
DNA 1: CAATCTGAATTCCGGTCTCCC
DNA 2: TGGTGGCTACGACGGGATT
B25: GAAGUUU (DNA:RNA)
RNA: B1 RNA with C27A, A29U, A30U, C31U
DNA 1: CAATCTGAATTCCGGTCTCCC
DNA 2: TGGTGGCTACGACGGGATT
B26: UCAAUCC (DNA:RNA)
RNA: B1 RNA with G25U, A26C, C27A, G28A, A29U, A30C
DNA 1: CAATCTGAATTCCGGTCTCCC
DNA 2: TGGTGGCTACGACGGGATT
B27: UUAAAGC (DNA:RNA)
RNA: B1 RNA with G25U, A26U, C27A, G28A, A30G
DNA 1: CAATCTGAATTCCGGTCTCCC
DNA 2: TGGTGGCTACGACGGGATT
B28: CCACUCG (DNA:RNA)
RNA: B15 RNA with U26C, U27A, G29U, U30C
DNA 1: CAATCTGAATTCCGGTCTCCC
DNA 2: TGGTGGCTACGACGGGATT
B29: UAGGAGC (DNA:RNA)
RNA: B1 RNA with G25U, C27G, A30G
DNA 1: CAATCTGAATTCCGGTCTCCC
DNA 2: TGGTGGCTACGACGGGATT
B30: GAUGUAU (DNA:RNA)
RNA: B1 RNA with C27U, A29U, C31U
DNA 1: CAATCTGAATTCCGGTCTCCC
DNA 2: TGGTGGCTACGACGGGATT
B31: UAUGCGC (DNA:RNA)
RNA: B1 RNA with G25U, C27U, A29C, A30G
DNA 1: CAATCTGAATTCCGGTCTCCC
DNA 2: TGGTGGCTACGACGGGATT

Changes are numbered by the printed parent chain; changes in the protein carry UniProt numbers. The list shows a part of the results.

The assay concerns the target T1, RBFOX1 RRM. The assay can be described thus: EMSA; HiTS-Eq, 1 nM pool, 10 min; buffer printed only for the single-RNA assays: 10 mM Tris pH 7.5, 150 mM NaCl, 3.4 mM EDTA, 0.001% NP-40, 30 C. As to conditions: tags: His6 N-terminal (pET28a); label: 5' 32P. Put shortly: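 A pool of RNA with 7 randomized nucleotides, 5′-radiolabelled and with DNA-annealed flanks, was equilibrated at 1 nM for 10 min in 50 µL with purified RbFox RRM, wild type or mutant, across increasing protein concentrations. Free RNA was separated by 8% native PAGE, excised, reverse-transcribed, barcoded by PCR and sequenced. Relative association constants were obtained from read-count changes of each RNA species versus the control reaction and normalised to the cognate motif.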
As for B1, the binding signal was 0.00753 KA relative to UGCAUGU.
With B2 the figure was 0.0242 KA relative to UGCAUGU; with B3, 0.00106 KA relative to UGCAUGU; with B4, 0.00892 KA relative to UGCAUGU.
With B5, the binding signal was 0.0164 KA relative to UGCAUGU.
With B6 the figure was 0.0109 KA relative to UGCAUGU; with B7, 0.00158 KA relative to UGCAUGU; with B8, 0.029 KA relative to UGCAUGU.
With B9 the figure was 0.00949 KA relative to UGCAUGU; with B10, 0.00875 KA relative to UGCAUGU.
On to B11, for which the binding signal was 0.0137 KA relative to UGCAUGU.
Take B12: the binding signal was 0.038 KA relative to UGCAUGU.
With B13 the figure was 0.00138 KA relative to UGCAUGU; with B14, 0.00716 KA relative to UGCAUGU; with B15, 0.0173 KA relative to UGCAUGU.
Turning to B16, the binding signal was 0.00833 KA relative to UGCAUGU.
Next, B17: 0.0262 KA relative to UGCAUGU; B18: 0.00464 KA relative to UGCAUGU.
Regarding B19, the binding signal was 0.00801 KA relative to UGCAUGU.
As to B20, the binding signal is 0.00245 KA relative to UGCAUGU.
Take B21: the binding signal was 0.00163 KA relative to UGCAUGU.
Next, B22: 0.00961 KA relative to UGCAUGU; B23: 0.00592 KA relative to UGCAUGU.
As for B24, the binding signal was 0.00731 KA relative to UGCAUGU.
With B25 the figure was 0.0129 KA relative to UGCAUGU; with B26, 0.00161 KA relative to UGCAUGU; with B27, 0.00615 KA relative to UGCAUGU.
Consider B28, for which the binding signal is 0.00163 KA relative to UGCAUGU.
Consider B29, for which the binding signal was 0.00606 KA relative to UGCAUGU.
For the molecule B30, the binding signal was 0.0153 KA relative to UGCAUGU.
Next, B31: 0.0181 KA relative to UGCAUGU.
